Results published in the supplement of paper PMC8728848.
This is one part of the list.

Columns and labels:
Assay in all cases: glycan array binding signal (z-score within array); higher = stronger binding
Conditions in all cases: glycan notation: IUPAC condensed, linker removed
[1] = molecular target: Neu5Ac(a2-3)Gal(b1-3)GalNAc(b1-4)[Neu5Ac(a2-8)Neu5Ac(a2-3)]Gal(b1-4)Glc
Summary of the method: (§1)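 Glycan array data were curated from 3228 arrays in the Consortium for Functional Glycomics database and kept only where the protein sequence was available. Glycan names were converted to IUPAC-condensed notation, and columns mapping to the same glycan were averaged. The binding signal is a within-array Z-score, averaged across arrays of the same protein sequence at different concentrations or buffers and across linkers. Negative Z-scores can be read as non-binding.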

[2] = molecular target: Neu5Ac(a2-3)Gal(b1-3)GalNAc6S
Summary of the method: as §1

[3] = molecular target: Neu5Ac(a2-3)Gal(b1-3)GlcNAc
Summary of the method: as §1

[4] = molecular target: Neu5Ac(a2-3)Gal(b1-3)GlcNAc(b1-2)Man(a1-3)[Neu5Ac(a2-3)Gal(b1-3)GlcNAc(b1-2)Man(a1-6)]Man(b1-4)GlcNAc(b1-4)GlcNAc
Summary of the method: as §1

[5] = molecular target: Neu5Ac(a2-3)Gal(b1-3)GlcNAc(b1-3)Gal(b1-3)GlcNAc
Summary of the method: as §1

[6] = molecular target: Neu5Ac(a2-3)Gal(b1-3)GlcNAc(b1-3)Gal(b1-4)GlcNAc
Summary of the method: as §1

[7] = molecular target: Neu5Ac(a2-3)Gal(b1-3)GlcNAc(b1-3)GalNAc
Summary of the method: as §1

[8] = molecular target: Neu5Ac(a2-3)Gal(b1-3)GlcNAc6S
Summary of the method: as §1

[9] = molecular target: Neu5Ac(a2-3)Gal(b1-3)[Fuc(a1-4)]GlcNAc
Summary of the method: as §1

[10] = molecular target: Neu5Ac(a2-3)Gal(b1-3)[Fuc(a1-4)]GlcNAc(b1-3)Gal(b1-3)[Fuc(a1-4)]GlcNAc
Summary of the method: as §1

[11] = molecular target: Neu5Ac(a2-3)Gal(b1-3)[Fuc(a1-4)]GlcNAc(b1-3)Gal(b1-4)[Fuc(a1-3)]GlcNAc
Summary of the method: as §1

[12] = molecular target: Neu5Ac(a2-3)Gal(b1-3)[Neu5Ac(a2-3)Gal(b1-4)]GlcNAc
Summary of the method: as §1

[13] = molecular target: Neu5Ac(a2-3)Gal(b1-3)[Neu5Ac(a2-6)]GalNAc
Summary of the method: as §1

Neu5Ac(a2-3)Gal(b1-4)Glc = molecular target: Neu5Ac(a2-3)Gal(b1-4)Glc
Summary of the method: as §1

[14] = molecular target: Neu5Ac(a2-3)Gal(b1-4)GlcNAc
Summary of the method: as §1

[15] = molecular target: Neu5Ac(a2-3)Gal(b1-4)GlcNAc(b1-2)Man(a1-3)[GlcNAc(b1-2)Man(b1-4)GlcNAc(b1-2)Man(a1-6)]Man(b1-4)GlcNAc(b1-4)GlcNAc
Summary of the method: as §1

[16] = molecular target: Neu5Ac(a2-3)Gal(b1-4)GlcNAc(b1-2)Man(a1-3)[Neu5Ac(a2-6)Gal(b1-4)GlcNAc(b1-2)Man(a1-6)]Man(b1-4)GlcNAc(b1-4)GlcNAc
Summary of the method: as §1

[17] = molecular target: Neu5Ac(a2-3)Gal(b1-4)GlcNAc(b1-3)Gal
Summary of the method: as §1

[18] = molecular target: Neu5Ac(a2-3)Gal(b1-4)GlcNAc(b1-3)Gal(b1-3)GlcNAc
Summary of the method: as §1

[19] = molecular target: Neu5Ac(a2-3)Gal(b1-4)GlcNAc(b1-3)Gal(b1-4)GlcNAc
Summary of the method: as §1

[20] = molecular target: Neu5Ac(a2-3)Gal(b1-4)GlcNAc(b1-3)Gal(b1-4)GlcNAc(b1-3)Gal(b1-4)GlcNAc
Summary of the method: as §1

[21] = molecular target: Neu5Ac(a2-3)Gal(b1-4)GlcNAc(b1-3)Gal(b1-4)[Fuc(a1-3)]GlcNAc
Summary of the method: as §1

[22] = molecular target: Neu5Ac(a2-3)Gal(b1-4)GlcNAc(b1-3)GalNAc
Summary of the method: as §1

[23] = molecular target: Neu5Ac(a2-3)Gal(b1-4)GlcNAc(b1-6)[Gal(b1-3)]GalNAc
Summary of the method: as §1

[24] = molecular target: Neu5Ac(a2-3)Gal(b1-4)GlcNAc(b1-6)[Neu5Ac(a2-3)Gal(b1-3)]GalNAc
Summary of the method: as §1

[25] = molecular target: Neu5Ac(a2-3)Gal(b1-4)GlcNAc6S
Summary of the method: as §1

[26] = molecular target: Neu5Ac(a2-3)Gal(b1-4)[Fuc(a1-3)]GlcNAc
Summary of the method: as §1

[27] = molecular target: Neu5Ac(a2-3)Gal(b1-4)[Fuc(a1-3)]GlcNAc(b1-3)Gal
Summary of the method: as §1

[28] = molecular target: Neu5Ac(a2-3)Gal(b1-4)[Fuc(a1-3)]GlcNAc(b1-3)Gal(b1-4)GlcNAc
Summary of the method: as §1

[29] = molecular target: Neu5Ac(a2-3)Gal(b1-4)[Fuc(a1-3)]GlcNAc(b1-3)Gal(b1-4)[Fuc(a1-3)]GlcNAc(b1-3)Gal(b1-4)[Fuc(a1-3)]GlcNAc
Summary of the method: as §1

B1: CwpV (Clostridium difficile), B6EFG6 (protein)
chain: MKIPKKIAAMLTVTMIAGSSTAGIASAQTVATNLTGQERYETAVKISQDGWKNADEVVIVNDSSIADALSATPFAKAKNAPILLTSKDKLNDKTKAEIQRLKAKKVYLIGGTSVLSTNIEKEIKDLKISFERISGAERYQTSLELAKKLDAISDVKKIAVVNGEKGLADAVSVGAPAAQNNMPVILADSKNGTAVADKFIKDAGITQSYVVGGESSISEAVKNKLPNSTRLGGTDRNDTNAKVIKEFYKKTDLKNAYVTKDGMNKQDQLIDALAVGVLGAKNQSPVVLVGKNLSASQKSLVNSKSFDKITKVGGNGNETAFNEMKSLQEVKTVEAKTISELKSAIDKATANDVINFKPTSEVKEAFTIQTDKAVTVNLNGTYTKTVTINMPNGDVNNYAKVDDVVIDDVKDGTFVNYGKITNLKVNDKNGAKIENNSKGEIGSLTVASGASQVKVTNGGKITTVTNNSKGTTIDNKGTISSVKGDNSPTISGNSPSSNSSGGSSSSGGSSGGSSGGSSSSKVGQIKFSATDKQIKMASGDKTVDPSDNTYILKLTNGTVKDGDVKANVKVAGLPSGLDYTAVGNRSANTITITVSGTTSQSIQNDLNNVSVLVKAGAVSGTGATDSIANTTFEIKKYVAAPAVGQLTFDATDKQIKMASGDKTVDPSDDTYVLTLTKGTAKDGDIKANVEVTGLPSGLDYTAEGDSSANTITIPVSGTASPAVQTDLDNVSVLVKAGAVSETTATDSAANATFEVKKYVAPAVGQLTFDATDKQIKMASGDKTVDPSDDTYVLTLTKGTAKDGDIKANVEVTGLPSGLDYTAEGDSSANTITITVSGTASQAVQTDLDNVSVLVKAGAVSETTATDSAANATFEVKKYVAPAIGQLTFDATDKQIKMASGDKTVDPSDDTYVLTLTKGTAKDGDIKANVEVTGLPSGLDYTAEGDSSANTITITVSGTASQAVQTDLDNVSVLVKAGAVSETTATDSAANATFEVKKHASDPISTIGKISSGLSSLFNILK
glycan array binding signal (z-score) [1]: -0.216
glycan array binding signal (z-score) [2]: -0.321
glycan array binding signal (z-score) [3]: -0.297
glycan array binding signal (z-score) [4]: -0.327
glycan array binding signal (z-score) [5]: -0.328
glycan array binding signal (z-score) [6]: 0.192
glycan array binding signal (z-score) [7]: -0.324
glycan array binding signal (z-score) [8]: -0.346
glycan array binding signal (z-score) [9]: -0.313
glycan array binding signal (z-score) [10]: 0.484
glycan array binding signal (z-score) [11]: 1.09
glycan array binding signal (z-score) [12]: -0.329
glycan array binding signal (z-score) [13]: 0.035
glycan array binding signal (z-score) (Neu5Ac(a2-3)Gal(b1-4)Glc): -0.246
glycan array binding signal (z-score) [14]: -0.167
glycan array binding signal (z-score) [15]: -0.343
glycan array binding signal (z-score) [16]: -0.318
glycan array binding signal (z-score) [17]: -0.276
glycan array binding signal (z-score) [18]: -0.335
glycan array binding signal (z-score) [19]: 0.09
glycan array binding signal (z-score) [20]: 0.405
glycan array binding signal (z-score) [21]: -0.29
glycan array binding signal (z-score) [22]: -0.341
glycan array binding signal (z-score) [23]: -0.232
glycan array binding signal (z-score) [24]: -0.316
glycan array binding signal (z-score) [25]: -0.08
glycan array binding signal (z-score) [26]: -0.146
glycan array binding signal (z-score) [27]: -0.35
glycan array binding signal (z-score) [28]: 0.368
glycan array binding signal (z-score) [29]: -0.172
